# Source: the supplement of paper PMC11417369
# ± gives the standard deviation of the averaged measurements. The list shows a part of the results.
# Test system: PfAP2-G AP2 domain (GST-tagged)
# Assay: gcPBM binding intensity (ln(normalized median fluorescence intensity)); higher = stronger DNA binding
# Procedure, shortened: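 Plasmodium falciparum DNA-binding domains carrying a GST tag were expressed in E. coli and applied for 1 h, at about 25 μg on average, to an Agilent 4 × 180k array. The array held primer-extended double-stranded 36-bp intergenic genomic probes together with negative controls, and binding took place in 1× PBS with 1% milk, 0.2 mg/ml BSA, 0.5% salmon testes DNA and 0.03% Triton X-100. An Alexa488 anti-GST antibody detected bound protein, and the array was scanned at 488 nm. Binding intensity is taken as the highest Masliner-normalised natural-log median intensity across replicate spots of either probe orientation.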
row,Sequence,gcPBM binding intensity (ln)
1,TATTTTATCTAAGGATGTACATTATTAAGAAAATGT [XGTACX_site6123],11 ± 0.63
2,TAGAAATATAATTAATGTACATATGATATTATATAT [XGTACX_site923],11 ± 0.6
3,ATTTATTTATATAGAAGTACATATTTATTTATATAT [XGTACX_site6283],11.2 ± 0.85
4,CTTTTTTAAATTATTGCACACAAAAATGAAAGGAAA [CACACA_site8412],10.3 ± 0.3
5,ACATCAAGCAGACACACACACACACCCACCCACCGA [CACACA_site371],10.4 ± 0.37
6,TTTTTAAATATATAATAGAATTGATTGTATTATATA [CACACA_negctrl_site196],9.61 ± 0.29
7,TATAGATTCTTTTAATGTACATGTCTTTTCATTTCC [XGTACX_site8348],11 ± 0.56
8,ATATATATATATACAACACACATGTAATATATAAAT [CACACA_site3294],10.1 ± 0.4
9,TACTGATCCACATTTATACACACCTCGGTTTGTAGA [CACACA_site417],10.3 ± 0.25
10,TTGTGTTCTTATTTTTACACCGAAAAATATTAAAAG [CACACA_negctrl_site535],10.4 ± 0.42
11,CCTTTATACATTTTCTGTACTGATATATATTAAAAA [XGTACX_site8467],11.2 ± 0.67
12,GTATGAAAAAAAATATGTACACATATATATTTGGTA [XGTACX_site6309],11.4 ± 0.83
13,TTGGTTTGAAAGAAAGAAATTATTAAAAAGGAAATA [CACACA_negctrl_site26],9.86 ± 0.11
14,GATATACTGTCAATTCTACACACCATAGGGGGAGCA [CACACA_site8562],11.1 ± 0.69
15,ATATAAAAAAAAAAAAAAAAATATATATATATATAT [GTGCAC_negctrl_site251],9.94 ± 0.83
16,TAAAAAAAATAGCATACACACATATATACCTATATA [CACACA_site4535],9.73 ± 0.16
17,CTTTTTATTAAATATGCATGTGTATCAACAGTGAAT [TGCATGCA_site447],10.3 ± 0.16
18,GTTATACGCATATATACACACATATGTAAATATATA [CACACA_site3280],10.2 ± 0.23
19,ATGAGTGCACAAATATATATATATATATATATATAT [CACACA_negctrl_site404],10.3 ± 0.54
20,ATCATAACACCTCCACACAAATAAATATAACATATA [XGTACX_negctrl_site269],10.1 ± 0.42
21,CATACACCCGGACACACACACACACCCATATATAAT [CACACA_site4494],11 ± 0.64
22,TTGTTTTTTTCTTTTTGTACATATACAACATACATA [XGTACX_site8996],11.1 ± 0.79

row,Sequence,gcPBM binding intensity (ln)
1,TATTAAATATAAGTCACACATAATTTTTCGTCCTTT [CACACA_site5065],10.06 ± 0.057
2,AAACAATTTATGTGTAGTACATGTTGGAGATAATTT [XGTACX_site6000],11.4 ± 0.88
3,GAAAATATATTATTTACACACATGTTCAAATTAAAA [CACACA_site3761],9.97 ± 0.16
4,AAGAAAATATAACAAAGTAAAAACATATTATATATA [TGCATGCA_negctrl_site248],9.76 ± 0.18
5,TATATATATTTTTGAAGTACTTATTACACTAGCATT [XGTACX_site8965],11.2 ± 0.61
6,AGGATAACATACAAAAGTACATAAAACTAAAAAAAC [XGTACX_site26],11.4 ± 0.72
7,ATATATATATATATATGTACATATATTTTCTTTTTG [XGTACX_site6017],11.1 ± 0.73
8,TTGTTCTATAATTATACATGCATTAACAGAGTAAAA [TGCATGCA_site909],10.1 ± 0.2
9,AAAAACGATTAATGTGTACACACATAGTTATAAACA [CACACA_site8659],11.7 ± 1.2
10,TTTTTTTTTTTTTAATGTACAAATATGGTGACAAAA [XGTACX_site8709],11 ± 0.76
11,TGGGAATAACGACACACACACACACGGATATAAATA [CACACA_site7633],10.235 ± 0.007
12,CTTTTCATCTTCTTAACACACAAAAAAAAAAAAAAA [CACACA_site3886],9.99 ± 0.54
13,TATATTTTGTTTTTGTGTACATATTGGTAGTTATTT [XGTACX_site7659],11.5 ± 0.86
14,TGATTATCCTATATATATTTCATAATGGAAAAAAAT [TGCATGCA_negctrl_site444],9.89 ± 0.35
15,AATGTGGTATTTACAAAAAGGCTTTATACTTAAAAA [XGTACX_negctrl_site566],10.3 ± 0.29
16,AAAAATAGTCTTCTTGCACTTTTTAATTTATTTTAA [CACACA_negctrl_site1322],10.1 ± 0.19
17,CTATTATATCAGTAGACACACATATAACATTTATAT [CACACA_site141],10.1 ± 0.12
18,AAAATTCAGCGAAAGGGTACATATGTGTAAGGGTAA [XGTACX_site8205],11.1 ± 0.54
19,TATATTTATATACCAACACACATACATATTTATATA [CACACA_site6931],10.14 ± 0.085
20,ATGGATTTTACCATAGCACACATATATGAATATTTT [CACACA_site8535],10.02 ± 0.035
21,ATATAGAAAATGCATACACACTTTATATATATATTT [CACACA_site4658],9.8 ± 0.085
22,TAATTATTTCGTATATTTGAATGGTACATGCTTATA [CACACA_negctrl_site1178],10.7 ± 0.6

row,Sequence,gcPBM binding intensity (ln)
1,ATCTTATATTATCACACACACACGCACAAAACAGAA [CACACA_site1463],10.4 ± 0.45
2,TTTATTAAACTTGACACACACACACCCACATATATA [CACACA_site760],10.6 ± 0.59
3,ATATTATATAGAAACACACATACACATGTAAATATA [CACACA_site2037],10.12 ± 0.049
4,AGTAACAATTATTATGCATGTACAAATAATCATTTT [TGCATGCA_site867],10.7 ± 0.49
5,AATGTGCTCGCTATTACACACTCATTGGGATAAAAT [CACACA_site8627],10.4 ± 0.32
6,TAAAAACCAAAGAAAAGTACAAATTTAAATGAGAAA [XGTACX_site7450],11.1 ± 0.56
7,TTTACACCGTAATATGCATGTGTGTATATATTTTTG [TGCATGCA_site186],9.97 ± 0.13
8,ATAAGCCATTTTTGTGGTACATAAAATAGATATATA [XGTACX_site5175],11.3 ± 0.75
9,TATACACGCGGACACACACACACACGCAAAAAAAAA [CACACA_site6377],11.5 ± 1
10,CATCTTAGTTTGAGTTGTACAATATTTATAAAAATA [XGTACX_site693],11.4 ± 0.81
11,GCACAATTTACACTTAAACACACAAAAAAAAATTAT [CACACA_site8642],10.05 ± 0.099
12,AAATTTATTTATTATAGTACACTTAATACTACCCAA [XGTACX_site41],11.4 ± 0.73
13,AGCACAGACGGACACACACACACACCCACAGACACA [CACACA_site4358],11.5 ± 0.95
14,ATATATATTTAAAGATGTACATAATGAAATGGTTAT [XGTACX_site4706],11.2 ± 0.71
15,GCAGTATTTCGGAACACACAAACATAAATATGTATT [CACACA_site2316],10.2 ± 0.19
16,ATATATATATATGTATGTACATATTTTTTTTAACAC [XGTACX_site8475],11.4 ± 0.89
17,TTAAAACATAAAAAAAGTACATACAAATATATATAA [XGTACX_site789],11.6 ± 0.94
18,TACAAAATAACTAGCACACATATGTATAAACATATA [CACACA_site5948],10.1 ± 0.17
19,TATGTCAATCAAGCAAGTACATATATATATAAATAT [XGTACX_site7554],11.1 ± 0.84
20,AATTATATTACGAAATGTACATATAATAATGTATAT [XGTACX_site4410],10.9 ± 0.54
21,GCCATTGTACCATCCACACACATATATATATGTATA [CACACA_site2704],10.9 ± 0.53
22,TTCAAAACTTAAAATCGTACAAGACAATTATTATAT [XGTACX_site6626],11.2 ± 1.1

row,Sequence,gcPBM binding intensity (ln)
1,TTTGTTAAAAATATATTATGAATAAAAATATATTTT [CACACA_negctrl_site170],9.51 ± 0.085
2,ATATATATAAATAATTGTACTTAAAAAAAAAAAAGG [XGTACX_site6847],11.3 ± 0.9
3,TGTAGAGCGCAAAGTAGTACTACAAATTATGGAGGG [XGTACX_site3022],11.8 ± 1
4,AACAGCATATCACATTTCTTCAAAAAAAAATAAAAT [CACACA_negctrl_site733],9.96 ± 0.49
5,CTTTTAATATTAAGATGTACTTAGAATTTTTTTTTT [XGTACX_site8338],11.1 ± 0.67
6,TTTTTTGTTATTGGCGTGCACATATCCATTTATAGT,10.6 ± 0.33
7,CATATATATTTATGTACACACATTAATAAAAAAAAA [CACACA_site5741],11.5 ± 0.97
8,CCAAGAAACCAAAAAAGTACATACATGGTTATAATT [XGTACX_site4249],11.4 ± 0.9
9,ACAATATGTATATATATATATATGCAAATGTATAAA [CACACA_negctrl_site53],9.855 ± 0.078
10,TAAACACCCATATAAACACACATACATACATACATA [CACACA_site5383],10 ± 0.22
11,GATTAATTTAAAAAATGTACATTTTATTGTATAACC [XGTACX_site5539],11 ± 0.64
12,ATATTAAATTCAATTTAATGTTTTGTGAATTTTAGA [CACACA_negctrl_site1421],9.88 ± 0.43
13,TTAAATGGAAAAATATGTACATATATATATATATTT [XGTACX_site2286],11.2 ± 0.7
14,TGAACTCATAGATTTAGTACATATATAAAAAAATTC [XGTACX_site1692],11.1 ± 0.54
15,TTAATTTTTTTTTCTTGTACACACTATTTTATAATT [XGTACX_site8783],11.4 ± 0.91
16,TAGTATTAAATATATACACACATATATACATATAGA [CACACA_site2154],10 ± 0.23
17,GTAATAAAATGACATACATGCATTACAATTATGTAA [TGCATGCA_site220],9.755 ± 0.007
18,TATTATAATACTTATTGTACTTTTAGGTTAATTTAT [XGTACX_site995],11.3 ± 0.76
19,GTTGCACAATGTTACACACACAATATATATCGTTAA [CACACA_site1275],10.16 ± 0.092
20,GTGTACTTTTAAATAGTGCATTTTACAATAATAAAA [GTGCAC_site9653],11.5 ± 1.2
21,GCAGCAGCATTTTCAGTGCATTATTATATTGTTCAT [GTGCAC_site9926],9.76 ± 0.17
22,GGAAACCTTTTTTTTACACACAATATATTAAGACTT [CACACA_site4899],9.86 ± 0.014
